According to the supplement of paper PMC11417369:
This is one part of the list.

Tested on: PfHDP1 homeodomain (GST-tagged)
Assay: gcPBM binding intensity (ln(normalized median fluorescence intensity)); higher = stronger DNA binding
How it was run: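 Probes on an Agilent 4 × 180k array were primer-extended, double-stranded and 36 bp long, taken from intergenic genomic regions, with negative controls added. GST-tagged P. falciparum DNA-binding domains from E. coli, about 25 μg on average, were applied to the array for 1 h in 1× PBS containing 1% milk, 0.2 mg/ml BSA, 0.5% salmon testes DNA and 0.03% Triton X-100. Binding intensity, obtained after Alexa488 anti-GST antibody detection and a 488 nm scan, is the highest Masliner-normalised natural-log median intensity across replicate spots of either probe orientation.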

Row | Sequence | gcPBM binding intensity (ln)
1 | AGATAAAATATATATGCACACACATATATATTTCAT [CACACA_site9183] | 9.16
2 | ATTCTATATAAATATACACACATATATAAAATACAT [CACACA_site2293] | 6.73
3 | TTAATAATTAATATATGTACTGATAAATAACATATA [XGTACX_site3966] | 6.35
4 | ATAATTATTTAATATATATATATTATTTCGAATGTT [GTGCAC_negctrl_site688] | 6.98
5 | TAATTATTTAAAAAGAGTACATTTTTTTTTTTTTTT [XGTACX_site1060] | 6.18
6 | TTTTCAAAAATATACACACACATAAATATCTGTATA [CACACA_site4586] | 6.57
7 | TAAATAAAAAAAAATCGTACATATATTTTATATATG [XGTACX_site3293] | 5.91
8 | TCGTAATAATAGTTGAGTACGCACTAATATGTCAAT [XGTACX_site643] | 6.9
9 | TATTTACATTTTAGTAGTACATATATGTATATATAT [XGTACX_site6839] | 6.86
10 | AATTATATGCTTAATACGCACACGGGAAAAAAAAAA [CACACA_site1376] | 6.61
11 | CTTAAATTTAAGTTCACACATATTGGTCATTTATAT [CACACA_site5006] | 6.53
12 | CACTAAAATAGACACACACACACACGGATATAAATA [CACACA_site7873] | 6.8
13 | TTTATTTGTAACGGTTGTACTTGTATATCATTATGA [XGTACX_site4281] | 6.58
14 | CCACATTAAAAAAAAACACACATATATTATAGATAT [CACACA_site6662] | 6.54
15 | AATGTACGTTTTATAACACACACACTAATAAAAAAA [CACACA_site9286] | 6.68
16 | ATCTTCAAAAATATTAGTACACATGTATCATGAATT [XGTACX_site3872] | 6.61
17 | TAGATACATACACGCACACACATATATATATATATA [CACACA_site12] | 9.42
18 | TACTAAGAATTAATATAACAAAATAAAAAAAAAAAA [XGTACX_negctrl_site346] | 6.13
19 | ATACAGATATATAATACACACATAAATGTAACATTT [CACACA_site5864] | 6.95
20 | AAAATTAAAAATAACACACACATATATATATTTATA [CACACA_site2776] | 6.54
21 | GATATTTTTTTCGAAAGTACAAAAAAAAATATTTCC [XGTACX_site4389] | 6.16
22 | ATATATATACCAAGTAGTACATTCTACAACTAATGT [XGTACX_site8653] | 6.48

Row | Sequence | gcPBM binding intensity (ln)
23 | TGTATGTATAAAAACGCATGTATGTATTTTACAATA [TGCATGCA_site767] | 6.33
24 | ATGTATATATATATATGTACTAATTAGTAGTTTACG [XGTACX_site6272] | 7.03
25 | ACAAAATGTAGATATTGTACATATTGTAGATATTGT [XGTACX_site7619] | 5.93
26 | TTTGACAAATTATTGTGTACACAATATTATTATATA [XGTACX_site8320] | 6.75
27 | AATTAAAAAGAAAAAAGTACATATTTTTTTAAAAAA [XGTACX_site7384] | 6.42
28 | AAATATATATTTCTTAGTACATATGTATTTTTTTTT [XGTACX_site938] | 6.48
29 | ATATATATATATATGTGTACTAATAAGGTTAAATAA [XGTACX_site1535] | 9.09
30 | AATAAAAAAGAATATACACACATAAATATAAAATAT [CACACA_site683] | 6.74
31 | TACAGACAGAAATGCACACACATATTTATATTTATA [CACACA_site7139] | 9.88
32 | CTTCCTTAGGAATGTACACACATATATAATATGTTG [CACACA_site461] | 6.38
33 | TTTACAGAAAGTTACATACACACTAATATTTACACC [CACACA_site1009] | 6.9
34 | ATGAAGAAGTGTAAATGTACATTTTATGTAGAACAA [XGTACX_site6925] | 6.85
35 | ATTTAAGATTTAATCACACACATATAGATTATAGAC [CACACA_site7383] | 6.44
36 | TTATTTTTTTTTTATTGTACTAGGAAAATTTCGATA [XGTACX_site702] | 6.13
37 | TTTATATGTATTAAGTGTACACATATAATGTGTTTG [XGTACX_site6629] | 6.46
38 | TATAAGAGGATATATACACACAAAAATATGTACAGT [CACACA_site6885] | 6.52
39 | ATTATATATATATAAACACACAAATATTTTTATATA [CACACA_site5005] | 6.5
40 | TAATATTAATCCTAGTGTACATTAATTTATATGTAT [XGTACX_site3583] | 6.4
41 | ACCTATATAAGTTATACACACAAATATAGATATATA [CACACA_site7356] | 6.69
42 | CCAACATAGAGGGGCACACACATATATACCTAAAAA [CACACA_site5088] | 6.64
43 | CTGTGTTTTGGTTGTACACACGCTACATTCTATATT [CACACA_site2698] | 7.6
44 | AAAATAATTGTTTACACACCCATTTGTAATTTTACC [CACACA_site3614] | 6.32
